# Measurements from ChEMBL document CHEMBL4888484, “Replenishing the malaria drug discovery pipeline: Screening and hit evaluation of the MMV Hit Generation Library 1 (HGL1) against asexual blood stage Plasmodium falciparum ,using a nano luciferase reporter read-out” (2022).
# Among all 150,000 compounds or so, about 540 (0.36%) showed an effect of 50% or more. The list shows a part of the results.
# Tested on: Plasmodium falciparum
# Experiment: Primary screen in NF54 nanoGlo assay, in single point, at 2uM, 72h; a lower Z score goes with more inhibition
# Type: functional, Erythrocyte
# Conditions: timepoint 72 hour
SMILES,% Inhibition,Z score
CN(CCCc1cnn(C)c1)S(=O)(=O)NCc1ccccc1,-5%,0.96
CCCCN(C)CCNC(=O)c1nc(CS(=O)(=O)c2ccccc2)no1,7%,-1.23
COCC(C)(C)NC(=O)N1Cc2cnc(-c3ccccc3)nc2C1,-1%,0.09
CC[C@H](Nc1cccc(OC)c1)C(=O)N1CCCn2nc(C#N)cc2C1,-12%,1.43
Cc1ccc(CNS(=O)(=O)c2cc(C(=O)N3CCOCC3)cs2)cc1,-1%,0.07
CN1CCC(n2nccc2NC(=O)c2ccc3[nH]cnc3c2)CC1,-8%,1.39
Cc1cccc(CNC(=O)c2cc3n(n2)CCCN(Cc2ccc(F)cc2)C3=O)c1,-12%,1.19
Cc1ccc(C2=C[C@@H](c3ccccc3)n3nnnc3N2CC(=O)NCc2ccccc2F)cc1,-16%,1.57
CCc1ccccc1S(=O)(=O)N1CCC[C@](CCOC)(c2noc(C3CC3)n2)C1,-11%,1.63
CCCCn1ncnc1-c1[nH]nc(C)c1Cl,-6%,1.15
CCCC(=O)NCC(=O)NCc1nccc(N(C)C)n1,-5%,0.82
O=C(c1nc2ccc(Cl)cn2c1CNCc1cccnc1)N1CCCCCCC1,-16%,2.08
COCc1ncc(C)n1[C@H]1CCN(C(=O)CC2CCCC2)C1,7%,-1.15
Cc1nc(N)ccc1-c1ccc(C(=O)N2C[C@H](CO)[C@@H](CO)C2)cc1,-1%,0.08
COc1cc(Cl)c(C)cc1NC(=O)N(C)Cc1nc(C)no1,-3%,0.43
CC(C)(C)OC(=O)N[C@@H](C(=O)O)c1ccc(Cl)cc1,-9%,1.41
CCc1cccc2c([C@H](CC(=O)N3CCN(c4ccccc4OC)CC3)c3ccc(Cl)cc3)c[nH]c12,-9%,1.34
Cn1cc(C2CC2C(=O)N(CCN2CCCC2)c2ccccc2)cn1 (stereo unspecified),-6%,0.77
CC(NC(=O)C(F)(F)C(F)(F)C(=O)NC(C)C1CC2CCC1C2)C1CC2CCC1C2 (stereo unspecified),10%,-1.56
Cc1cccc(-n2cc(-c3ccccc3)nc2NC(=O)CN(CC2CC2)C(=O)Cc2ccccc2)c1,0%,0.02
Cc1noc(Cc2ccc(NCc3nocc3C)cc2)n1,1%,-0.08

SMILES,% Inhibition,Z score
CCCc1nc(C)cc(C[C@H]2CC(=O)N(CCOC)C2)n1,-4%,0.52
NC(=O)[C@@H]1CCCc2sc(NC(=O)c3ccc4c(c3)OCO4)nc21,-2%,0.27
CC(C)C[C@@H](CO)N(C)c1ccnc(N(C)C)n1,-1%,0.19
CCCOc1c(CN2CCC[C@H](CNS(C)(=O)=O)C2)cccc1OCC,-5%,0.6
COc1cccc(C(F)(F)CNC(=O)N[C@H]2C[C@H](OC)C2)n1,-2%,0.32
COc1cccc(-c2n[nH]c(C3CC3)c2NC(=O)C(C)(C)C)c1,-18%,1.78
C[C@H](NC(=O)NC1CCCN(C)C1=O)c1cncc(F)c1 (stereo partly specified),-6%,1.09
COCCN(Cc1ccc(C)c(Cl)c1)[C@@H](C)C(N)=O,-2%,0.28
CN1C[C@@H](C(=O)N2CCN(Cc3ccccc3)CC2)CC1=O,8%,-1.08
COc1cccc2[nH]cc(C(CC(=O)NC3CCS(=O)(=O)C3)c3ccsc3)c12 (stereo unspecified),-12%,2.25
Cc1cccnc1CN(Cc1ccccc1)C(=O)NC1(C)CCCCC1,5%,-0.82
N#Cc1ccccc1CN1CC(c2cccnc2)C1,-4%,0.46
CC(C)Cc1cc(Cn2cc(-c3cncnc3)nn2)no1,-7%,1.33
O=C1CCCN1c1ccc(CNS(=O)(=O)c2ccc(Cl)cc2)cc1,5%,-0.46
CN1CCN(C(=O)c2ccc(C#N)cc2)C[C@@]12CCC(=O)N(CC1CC1)CC2,1%,-0.08
Cn1cc(-c2noc([C@@H]3Cc4ccccc4O3)n2)cn1,-1%,0.11
CCOc1ccccc1N(C)Cc1cncs1,-8%,0.82
CC(=O)N1CCC(CN(C)C(=O)NC2CC(C)(C)c3ccccc32)C1 (stereo unspecified),-4%,0.4
COc1nn(C)cc1NC(=O)N[C@@H]1CCC[C@@H]1Oc1cnn(C)c1,-7%,1.41
O=C(O)[C@@H]1CN(C(=O)Cc2cc(C(F)(F)F)cc(C(F)(F)F)c2)CCN1,-6%,1.23
C=CC[C@@]1(O)C(=O)N2C(=C1C(=O)N1CCCCC1)c1ccccc1CC2(C)C,10%,-1.4

SMILES,% Inhibition,Z score
COc1ccc(CN2CCCN(C(=O)C(c3ccccc3)c3ccccc3)CC2=O)cc1,-6%,1.15
CC(C(=O)N1CCOCC1)N1CCCC1Cn1cccn1 (stereo unspecified),-12%,1.91
Cc1nc2ccccc2n1Cc1cc(C(=O)NC2(C(N)=O)CCCC2)no1,-3%,0.51
O=C1NC(=O)[C@H](CCC(=O)N2CCN(S(=O)(=O)c3ccc4c(c3)CCCC4)CC2)N1,-16%,1.37
Cc1noc(C)c1CN1CCNC(=O)CC1,31%,-4.11
O=C(Cn1cnc2ccccc21)Nc1ccccc1-c1ccc(=O)[nH]n1,-4%,0.6
Cc1nc(N)sc1-c1ccn(CCO)n1,-5%,0.88
O=C(NCCN1CCCC1=O)c1ccc(-c2ccc(Cl)cc2F)cc1,9%,-1.68
Cn1c(=O)c2c(ncn2[C@@H](C(=O)c2ccccc2)c2ccccc2)n(C)c1=O,-3%,0.48
CCN(CCN1CCCCCC1)Cc1cnn(CC)c1,1%,-0.1
O[C@H](COc1ccccc1Cl)Cn1nc(C(F)(F)F)c2cnccc21,-1%,0.06
Cc1cccc2nc(-c3cc4c(cc3Cl)OCO4)[nH]c12,-14%,1.35
NC(=O)[C@@H]1C[C@@H](F)CN1C(=O)COC1CCCCC1,-17%,2.37
NC(=O)c1cccc(OC(=O)c2cccc3cc[nH]c23)c1,-5%,0.82
Cc1ccnc(OCC(=O)Nc2cccc(C(F)(F)F)c2)n1,-9%,0.76
COC[C@](C)(CC(=O)O)NC(=O)c1ccc(C)c(C)c1,-11%,2.27
Cc1cc(C(=O)N(C)C2CC2)nn1C(F)F,0%,0.06
O=C(CN(Cc1ccco1)[C@H]1CCS(=O)(=O)C1)N1CCc2ccccc21,-1%,0.18
CCc1ocnc1C(=O)NS(=O)(=O)c1cc(Cl)c2c(c1)C[C@H](C)O2,-10%,1.34
Fc1ccc2c(c1)-c1c(cnc3cc(-c4ccccc4)nn13)CO2,-2%,0.19
O=C(CCN1C(=O)CCC1=O)Nc1cccc(S(=O)(=O)N2CCCCC2)c1,-4%,0.89

SMILES,% Inhibition,Z score
CC(=O)c1nnn(-c2nn(C)c3nc(C)cc(C)c23)c1C,-4%,0.57
COc1ccc(C(C)(O)C2CCCN2C(=O)c2cc(C)oc2C)cc1 (stereo unspecified),0%,0.01
CC(=O)Nc1ccc(N2C(=O)C3C(Cc4c[nH]c5ccccc45)NC4(C(=O)Nc5ccccc54)C3C2=O)cc1 (stereo unspecified),4%,-0.48
CC(C)(CO)CNc1nc2nonc2nc1N1CCCC1,-2%,0.23
Cc1cc(N2CCCC2)c(F)cc1C(=O)c1ccccc1,-11%,1.45
COCC(=O)Nc1cc(C(=O)NCCc2ccco2)c2c(c1)ncn2Cc1ccc(F)cc1,-1%,0.11
COCCN1C[C@@H](Cc2cccc(C(C)=O)c2)CC1=O,11%,-1.45
CCn1c(C(=O)N2CCN(Cc3ccccc3)CC2)cc2c(-c3cccs3)nn(-c3ccccc3)c21,-4%,0.68
COc1ccccc1OCC(=O)N1CCC[C@H](Oc2ccncc2)C1,-1%,0.08
Cc1ccc([C@H](C)N[C@H]2CC[C@H](O)CC2)s1,-7%,1
Cc1nc(CN(C)Cc2cnc(NCc3ccccc3)nc2)cs1,8%,-0.73
Cc1n[nH]cc1CN(C)C(=O)CCOc1ccccc1,-26%,3.85
CC(C)C[C@H]1C(=O)NCCCN1C(=O)COCc1ccnn1C,11%,-1.51
CCOc1cc(C(=O)N[C@@H](Cc2ccccc2)C(=O)N2CCC3(CC2)NCCc2[nH]cnc23)cc(OCC)c1OCC,3%,-0.32
Cn1cnc(CNC(=O)NCC2(N3CCOC(C)(C)C3)CCCCC2)n1,-21%,2.69
C[C@]1(C(=O)Nc2ccccc2-n2cncn2)CC1(Cl)Cl,-3%,0.66
O=C(Nc1ccc(S(=O)(=O)N2C[C@@H]3C[C@@H](C2)c2cccc(=O)n2C3)cc1)c1ccccc1Cl,-2%,0.21
Cc1ccc([C@@H](C)C(=O)NC2(c3ccccc3F)COC2)o1,-5%,0.7
O=C(NC1CCCCC1)N1CC[C@H](c2nc3ccccc3o2)C1,12%,-1.41
C[C@H]1Cc2ccccc2N1C(=O)C1CCN(S(=O)(=O)c2ccc3c(c2)CCCN3C(=O)C2CCC2)CC1,-12%,2.34
